Results from the supplement of paper PMC3334620.
In all, about 33,000 sequences were measured (“E-score (-0.5 to 0.5)”: median about -0.017, highest 2% from about 0.3 on). Some of the results follow.

Biological target: T1, Sut1 (UniProt P53032)
T1 sequence: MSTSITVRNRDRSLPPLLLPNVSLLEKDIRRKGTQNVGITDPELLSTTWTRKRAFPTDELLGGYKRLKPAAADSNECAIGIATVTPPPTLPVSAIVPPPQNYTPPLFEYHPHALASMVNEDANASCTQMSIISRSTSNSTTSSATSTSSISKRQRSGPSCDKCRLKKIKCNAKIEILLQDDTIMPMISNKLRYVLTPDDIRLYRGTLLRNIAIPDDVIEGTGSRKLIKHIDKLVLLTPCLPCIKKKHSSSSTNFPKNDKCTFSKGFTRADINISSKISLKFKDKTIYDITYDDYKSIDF
Assay: PBM E-score (8-mer binding enrichment) (E-score (-0.5 to 0.5)); higher = stronger / more preferred TF binding; most listed sequences are background and not binding sites
Details: protein concentration: 200 nM; construct: GST-full length
Outline: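 The E-score, a modified Wilcoxon-Mann-Whitney statistic, was computed by the Universal PBM Analysis Suite for every ungapped eight-base word pooled with its reverse complement. Scans behind it were normalised with masliner after bound GST-tagged yeast transcription factors were detected with fluorescent anti-GST. The proteins, at about 100-200 nM, had been applied to universal all-10-mer Agilent arrays made double-stranded by primer extension.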

Row | Sequence | PBM E-score
1 | GACTTCCA | -0.0749
2 | GTCTGAGA | -0.118
3 | CGAGTGAA | -0.0681
4 | CGTCTGCA | -0.133
5 | GAAATGTA | 0.13
6 | CGCTCAGC | -0.105
7 | AGATATGA | 0.13
8 | AAACGCCT | -0.05
9 | CAGATACG | 0.109
10 | GATCGTGA | -0.00383
11 | CCACGTCA | -0.0771
12 | TGAATTCA | 0.0862
13 | AGATGTTA | -0.037
14 | GGACATCA | 0.3
15 | AAAAAGTT | 0.0541
16 | CACCCGCA | 0.0155
17 | GCGCTTAC | -0.0907
18 | AACAACAT | 0.0759
19 | AGTGTAGG | -0.00484
20 | TGCGGACA | 0.242
21 | GGGCTACA | -0.103
22 | ACTCAAGT | 0.149
23 | GACATAAC | 0.247
24 | AGATTTTG | 0.131
25 | CACAGAGC | -0.106

Row | Sequence | PBM E-score
26 | CACGTGCA | -0.192
27 | CTTAGCAA | 0.0902
28 | GAAATTCA | 0.21
29 | ACTGATTC | 0.00576
30 | AGCTTAAA | 0.0829
31 | CGGTAAGC | -0.064
32 | AACCTATG | -0.0822
33 | GTCGCGAC | 0.278
34 | CCGCAAGC | -0.238
35 | GCTTCAAA | 0.117
36 | GGACCTCA | 0.0263
37 | ATGAGGGC | -0.17
38 | ACAAAGGC | -0.0842
39 | AATGTGCG | 0.109
40 | AGAACATC | 0.0303
41 | CTAACTTC | 0.0929
42 | GGCACTGA | -0.201
43 | AGCTTCTG | -0.078
44 | AACGTGCC | -0.151
45 | CGTATTTA | 0.201
46 | CAGGGCCC | -0.189
47 | ACTCTCAA | 0.0103
48 | AGGCTACA | -0.151
49 | CGATCAGC | -0.098
50 | AAGGTTAG | -0.0668

Row | Sequence | PBM E-score
51 | AGATCCCG | 0.0988
52 | GGCCAGTA | -0.139
53 | CTGTTAAC | 0.149
54 | CACCTCTA | -0.0969
55 | CCAGCACC | -0.282
56 | CCTTACCA | -0.117
57 | ACCACCCC | -0.238
58 | AATGTTAT | 0.214
59 | ACTTAAAG | -0.0784
60 | CGGCTTGA | -0.117
61 | TAAACAAA | 0.168
62 | CAACGCCC | -0.206
63 | ATCGCGTG | 0.00063
64 | CAATACAG | 0.0637
65 | CCGACAGG | -0.0152
66 | CTACAATC | 0.157
67 | CGGATATA | 0.288
68 | CTTTGGAA | 0.141
69 | CCTTAATC | -0.0331
70 | CGCTGCTC | -0.258
71 | AAATTCGC | 0.193
72 | ACTCCCAG | -0.142
73 | ACAGGAGA | -0.137
74 | CATCCGAC | 0.122
75 | ACAGGATG | 0.00239

Row | Sequence | PBM E-score
76 | TGGGAGAA | -0.07
77 | ACATCCGC | 0.0472
78 | ATCAGCCG | 0.0393
79 | GTGTTGCA | 0.043
80 | AGCCCTAC | -0.227
81 | CTATTAAC | 0.154
82 | CAATAGCG | -0.115
83 | ATAAGGAA | -0.055
84 | GGGATTAA | 0.0807
85 | AGAAATCT | 0.143
86 | GACATGCC | 0.00578
87 | GTCATCTA | -0.0917
88 | ATTTTCGG | 0.345
89 | TTATACAA | 0.326
90 | ATTGACTG | -0.1
91 | CATCTCCA | -0.036
92 | CCGGGACG | -0.00588
93 | ACACATTG | 0.114
94 | CGCTGTAA | 0.00093
95 | ACGAACAT | 0.2
96 | CTTCTGGA | -0.0307
97 | AGAATTCA | 0.115
98 | ACTGCAGT | -0.107
99 | TGCTTCCA | -0.138
100 | AGGGCCAG | -0.213

Row | Sequence | PBM E-score
101 | ACTCCCAT | -0.0456
102 | GGCCTCCC | -0.322
103 | GGAACTTA | -0.0324
104 | AGACATGA | -0.141
105 | GCTTCTGA | -0.0112
106 | GCTACGCA | -0.141
107 | ATTCACAC | 0.0223
108 | AAGAGCGT | -0.00268
109 | GTGAGCAA | -0.183
110 | GCGATGCC | -0.224
111 | CCCCTCAC | -0.228
112 | GAGTCAGC | -0.189
113 | CCTAGGAC | -0.224
114 | ACAAATCG | 0.0158
115 | AAGATAGG | 0.013
116 | AAGGCCCG | -0.201
117 | ATTGGGGC | -0.226
118 | AGCATATG | -0.0707
119 | CTTATCGA | 0.111
120 | TAAACCCA | 0.0439
121 | CATGAGGC | -0.229
122 | GTCTATAA | 0.161
123 | ACACTATA | 0.217
124 | AGCTCCAT | -0.0409
125 | GGTATATA | 0.263

Row | Sequence | PBM E-score
126 | AGATAGAA | 0.2
127 | ATCAACAG | 0.0277
128 | ACAGGGAC | -0.102
129 | CTCCGTGC | 0.321
130 | CAAATTTA | 0.205
131 | CATGCGAC | -0.151
132 | GAGCACAA | 0.0285
133 | ACTCGTCC | -0.0531
134 | CCGCCGCC | -0.0283
135 | AATTGGAG | -0.104
136 | GCAAGCAA | -0.0317
137 | GATCGTGC | -0.0302
138 | CTTCGAAG | 0.119
139 | CACCAGAC | -0.112
140 | GAAAAGCA | 0.0823
141 | GCACTGGC | -0.285
142 | AACGGTAG | -0.151
143 | ATGCTTAC | -0.279
144 | CCACCGCA | -0.0617
145 | TACATTCA | 0.124
146 | CCCGCGCA | -0.168
147 | TGACGACA | 0.0169
148 | GGTTTTAC | -0.289
149 | CCTTCCGA | 0.134
150 | TACAGACA | 0.216

Row | Sequence | PBM E-score
151 | AGTTTCAT | 0.199
152 | CCCCTACA | -0.308
153 | ACGCAAAA | 0.0234
154 | GCAGCATA | -0.22
155 | CGCCTCGA | 0.00442
156 | ATCCTCAG | -0.00968
157 | AACAAAGC | 0.192
158 | AAGGAAGT | 0.213
159 | ATCTTGTG | -0.0216
160 | CCCCGGCC | -0.173
161 | CATAACCG | 0.0105
162 | ACGCGAGG | -0.184
163 | AAGCGGTA | 0.0984
164 | CCTCTATC | -0.17
165 | AGTGTCAT | 0.0512
166 | AAGATAAA | 0.199
167 | CTCATCAG | 0.076
168 | GCTTCACC | -0.0264
169 | TCTCCCAA | -0.0834
170 | ATGTTTAG | 0.0163
171 | AGGATTTA | 0.165
172 | AGGACCGA | 0.0169
